Test results as given in patent publication US20220313819A1, “COMBINATION THERAPY FOR THE TREATMENT OF SOLID AND HEMATOLOGICAL CANCERS” (Arch Oncology, Inc., priority 2019, published 2022).

Columns and labels:
human CD47 = target: T1, human CD47 (Homo sapiens, UniProt Q08722); test: Binding to OV10 hCD47 cells, cell-based ELISA; conditions: apparent Kd; chimeric (xi) mAbs, Table 1
T1 construct: expressed in transfected cells; host or cells: OV10 human ovarian cancer cells
Experimental: (§1) The binding of chimeric (murine-human) and humanized antibodies of the present disclosure was determined by ELISA using OV10 cells transfected with human CD47 (OV10 hCD47) or using freshly isolated human red blood cells (hRBCs), which display CD47 on their surface (Kamel et al. (2010) Blood. Transfus. 8(4):260-266).
Binding activities of VLX4, VLX8, and VLX9 chimeric (xi) and humanized mAbs were determined using a cell-based ELISA assay with human OV10 hCD47cells expressing cell surface human CD47. OV10 hCD47 cells were grown in IMDM medium containing 10% heat inactivated fetal bovine serum (BioWest; S01520). One day before assay, 3×10^4 cells were plated in 96 well cell bind plates (Corning #3300, VWR #66025-626) and were 95-100% confluent at the time of assay. Cells were washed, various concentrations of purified antibodies added in IMDM and incubated at 37° C. for 1 hr in 95% O2/5% CO2. Cells were then washed with media and incubated for an additional hour at 37° C. with HRP labelled secondary anti-human antibody (Promega) diluted 1/2500 in media. […] Reactions were terminated by the addition of HCl to 0.7N, and absorbance at 450 nm determined using a Tecan model Infinite M200 plate reader. The apparent binding affinities of these clones to human OV10 hCD47 cells was determined by non-linear fit (Prism GraphPad software).

human CD47 on hRBCs = target: T2, human CD47 on hRBCs (Homo sapiens, UniProt Q08722); test: Binding to freshly isolated human red blood cells, flow cytometry; conditions: apparent Kd; chimeric (xi) mAbs, Table 1; read-out: Kd (pM) hRBC
T2 construct: freshly isolated human red blood cells (hRBCs), which display CD47 on their surface; from tissue; host or cells: human blood, washed red blood cells
Experimental: as §1
Binding activities of chimeric and humanized VLX4, VLX8, and VLX9 mAbs to human CD47 on hRBCs were also determined using flow cytometry.

hRBCs = test: Hemagglutination of washed human red blood cells; assay type: cell-based; conditions: hemagglutination; chimeric (xi) mAbs, Table 1
Experimental: Hemagglutination of hRBCs was assessed following incubation of hRBCs with various concentrations of chimeric and humanized VLX4, VLX8, and VLX9 mAbs in vitro essentially as described by Kikuchi et al. Biochem Biophys Res. Commun (2004) 315:912-918. Blood was obtained from healthy donors, diluted (1:50) in PBS/1 mM EDTA/BSA and washed 3 times with PBS/EDTA/BSA. hRBCs were added to U-bottomed 96 well plates with equal volumes of the antibodies (75 μl of each) and incubated for 3 hrs at 37° C. and overnight at 4° C.

Jurkat cells = test: Phagocytosis of tumor cells by human macrophages; assay type: cell-based; conditions: 1 μg/ml mAb
Experimental: Human derived macrophages were derived from leukapheresis of healthy human peripheral blood and incubated in AIM-V media (Life Technologies) for 7-10 days. For the in vitro phagocytosis assay, macrophages were re-plated at a concentration of 1×10^4 cells per well in 100 ul of AIM-V media in a 96-well plate and allowed to adhere for 24 hrs. Once the effector macrophages adhered to the culture dish, the target human cancer cells (Jurkat) were labelled with 1 μM 5(6)-Carboxyfluorescein diacetate N-succinimidyl ester (CFSE; Sigma Aldrich) and added to the macrophage cultures at a concentration of 5×10^4 cells in […] of AIM-V media (5:1 target to effector ratio). VLX4, VLX8, and VLX9 CD47 mAbs (1 μg/ml) were added immediately upon mixture of target and effector cells and allowed to incubate at 37° C. for 2-3 hours. After 2-3 hrs, all non-phagocytosed cells were removed and the remaining cells washed three times with phosphate buffered saline (PBS; Sigma Aldrich). Cells were then trypsinized, collected into microcentrifuge tubes, and incubated in 100 ng of allophycocyanin (APC) labelled CD14 antibodies (BD Biosciences) for 30 minutes, washed once, and analyzed by flow cytometry (Accuri C6; BD Biosciences) for the percentage of CD14^+ cells that were also CFSE^+ indicating complete phagocytosis.

- Kd (human CD47): 214 pM
- Kd (human CD47 on hRBCs): 99 pM
B1: VLX4 IgG4 S228P (xi): chimeric VLX4 anti-CD47 mAb, human IgG4 S228P (antibody)
heavy: EVQLQQSGPELVKPGASVKMSCKASGYTFTNYVIHWVKRRPGQGLEWIGYIYPYNDGILYNEKFKGKATVTSDKSSSTAYMDLSSLTSEDSAVYYCTRGGYYVPDYWGQGTTLTVSSASTKGPSVFPLAPCSRSTSESTAALGCLVKDYFPEPVTVSWNSGALTSGVHTFPAVLQSSGLYSLSSVVTVPSSSLGTKTYTCNVDHKPSNTKVDKRV[human IgG4 Fc with S228P (EU numbers) not given here]
light: DVLMTQTPLSLPVNLGDQASISCRSRQSIVHTNGNTYLGWFLQKPGQSPKLLIYKVSNRFSGVPDRFSGSGSGTDFTLTISRVEAEDLGVYYCFQGSHVPYTFGGGTKLEIKRTVAAPSVFIFPPSDEQLKSGTASVVCLLNNFYPREAKVQWKVDNALQSGNSQESVTEQDSKDSTYSLSSTLTLSKADYEKHKVYACEVTHQGLSSPVTKSFNRGEC
- HA hRBC (hRBCs): No
- phagocytosis of Jurkat cells by human macrophages (Jurkat cells): increased phagocytosis
